The source of these data is US20230027029A1 (AKESO BIOPHARMA, published 2023).

Experiment [1] has as its target T1, C1q (UniProt P02745; P02746; P02747).
T1 construct: also called serum complement C1q; complement C1q
Put plainly: BLI (Fortebio Octet), antibody immobilized on FAB2G sensor, C1q 0.625-10 nM in solution. How it is done: The sensor was refreshed 4 times in 10 mM glycine pH 1.7, each for 5 s. The shaking speed of the sample plate was 1000 rpm, the temperature was 30° C. and the frequency was 0.6 Hz. The data were analyzed by 1:1 model fitting to obtain affinity constants. The data acquisition software was Fortebio Data Acquisition 7.0, and the data analysis software was Fortebio Data Analysis 7.0.
(In general: Biolayer interferometry detects binding as a change in optical thickness at a sensor tip.)

For experiment [2], the target named is T2, FcγRIIIa_F158 (UniProt P08637 part only).
T2 construct: also called CD16a F158; hFcGR3A(F158)-his; not shown: His tag ('-his')
The experiment is described as follows: BLI (Fortebio Octet), FcγRIIIa_F158 immobilized on HIS1K sensor, antibody 31.25-500 nM in solution (the legend prints FcγRIIa_F158; Example 6 gives FIGS. 21-25 as FcγRIIIa_F158). How it is done:
The sensor was equilibrated in a buffer for 60 s, and the binding of the immobilized hFcGR3A(F158)-his on the sensor to the antibodies at concentrations of 31.25-500 nM (serial two-fold dilution) was determined for 60 s. The antibody was dissociated in the buffer for 60 s. The sensor was refreshed 4 times in 10 mM glycine pH 1.5, each for 5 s. The detection temperature was 30° C. and the frequency was 0.3 Hz. The data were analyzed by 1:1 model fitting to obtain affinity constants.

Chain of C1q (P02745 23-245 limits assumed, chain 1 of 3): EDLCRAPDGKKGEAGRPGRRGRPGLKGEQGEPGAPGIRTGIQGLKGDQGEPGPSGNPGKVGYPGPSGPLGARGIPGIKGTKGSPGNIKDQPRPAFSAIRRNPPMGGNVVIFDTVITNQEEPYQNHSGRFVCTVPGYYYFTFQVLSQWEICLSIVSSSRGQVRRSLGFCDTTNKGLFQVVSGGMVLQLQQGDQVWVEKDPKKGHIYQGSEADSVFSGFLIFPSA
Chain of C1q (P02746 28-253 limits assumed, chain 2 of 3, further chain): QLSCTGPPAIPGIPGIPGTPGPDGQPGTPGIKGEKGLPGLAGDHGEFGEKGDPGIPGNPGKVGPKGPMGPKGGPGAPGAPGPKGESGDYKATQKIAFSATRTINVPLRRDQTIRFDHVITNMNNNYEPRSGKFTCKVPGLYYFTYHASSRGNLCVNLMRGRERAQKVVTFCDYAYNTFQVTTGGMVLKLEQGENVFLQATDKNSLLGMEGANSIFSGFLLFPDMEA
Chain of C1q (P02747 29-245 limits assumed, chain 3 of 3, further chain): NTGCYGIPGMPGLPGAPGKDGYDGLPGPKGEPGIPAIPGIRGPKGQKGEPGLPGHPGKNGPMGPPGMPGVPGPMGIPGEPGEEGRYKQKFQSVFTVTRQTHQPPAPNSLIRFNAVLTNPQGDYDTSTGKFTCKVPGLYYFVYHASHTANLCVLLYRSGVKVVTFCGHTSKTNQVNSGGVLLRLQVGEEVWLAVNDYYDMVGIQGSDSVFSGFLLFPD
Chain of FcγRIIIa_F158 (P08637 17-208 limits assumed): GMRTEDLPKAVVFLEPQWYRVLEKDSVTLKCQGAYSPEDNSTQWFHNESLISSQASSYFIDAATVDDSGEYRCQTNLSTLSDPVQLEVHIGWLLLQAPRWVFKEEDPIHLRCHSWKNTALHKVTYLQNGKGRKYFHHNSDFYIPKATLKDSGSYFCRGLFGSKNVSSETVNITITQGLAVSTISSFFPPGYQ

B1: VP101(hG4WT) (bispecific antibody, human IgG4 S228P, kappa)
heavy: EVQLVESGGGLVQPGGSLRLSCAASGYTFTNYGMNWVRQAPGKGLEWVGWINTYTGEPTYAADFKRRFTFSLDTSKSTAYLQMNSLRAEDTAVYYCAKYPHYYGSSHWYFDVWGQGTLVTVSSASTKGPSVFPLAPCSRSTSESTAALGCLVKDYFPEPVTVSWNSGALTSGVHTFPAVLQSSGLYSLSSVVTVPSSSLGTKTYTCNVDHKPSNTKVDKRV[human IgG4 Fc with S228P (EU numbers) left out here]GGGGSGGGGSGGGGSGGGGSEVQLVESGGGLVQPGGSLRLSCAASGFAFSSYDMSWVRQAPGKGLDWVATISGGGRYTYYPDSVKGRFTISRDNSKNNLYLQMNSLRAEDTALYYCANRYGEAWFAYWGQGTLVTVSSGGGGSGGGGSGGGGSGGGGSDIQMTQSPSSMSASVGDRVTFTCRASQDINTYLSWFQQKPGKSPKTLIYRANRLVSGVPSRFSGSGSGQDYTLTISSLQPEDMATYYCLQYDEFPLTFGAGTKLELKR
light: DIQMTQSPSSLSASVGDRVTITCSASQDISNYLNWYQQKPGKAPKVLIYFTSSLHSGVPSRFSGSGSGTDFTLTISSLQPEDFATYYCQQYSTVPWTFGQGTKVEIKRTVAAPSVFIFPPSDEQLKSGTASVVCLLNNFYPREAKVQWKVDNALQSGNSQESVTEQDSKDSTYSLSSTLTLSKADYEKHKVYACEVTHQGLSSPVTKSFNRGEC
notes: also called VP101(G4M)
Regarding B1, the binding result in experiment [1] is listed as “no binding (tested: 10 nM)”; in experiment [2] it was “no binding (tested: 500 nM)”.
